The RNAGym collection of RNA variant scans (doi:10.1073/pnas.2313332121)
This sample is rich in variants without activity.

B1: TPR 5TU (parent)
chain: GGAUCUUCUCGAUCUAACAAAAAAGACAAAUCUGCCACAAAGCUUGAGAGCAUCUUCGGAUGCAGAGGCGGCAGCCUUCGGUGGCGCGAUAGCGCCAACGUUCUCAACUAUGACACGCAAAACGCGUGCUCCGUUGAAUGGAGUUUAUCAUG

Variants of: B1
Experiment: polymerase ribozyme fitness, log enrichment relative to wild type (log ratio); higher = more active; in vitro selection for triplet polymerase activity
Summary of the method: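 Mutant libraries for each subunit of a heterodimeric triplet polymerase ribozyme were made by PCR and then transcribed. Each library underwent one round of in vitro selection in triplicate: annealing with a biotinylated primer, the partner subunit and triplets, frozen incubation at −7 °C, gel excision of extended constructs, streptavidin-bead capture and RT-PCR. Input and output libraries were Illumina-sequenced, and only genotypes with ≥10 input reads and ≥1 read per output were kept. Fitness is the logarithm, base 2, of genotype enrichment over wild-type enrichment, computed from inverse-variance-weighted replicate averages.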

Variant	polymerase ribozyme fitness (log ratio)
GGAUCUUCUCGAUGUAACAAAAAAGACAAAUCUGCCACAAAGCUUGAGAGCAUCUUCGGAUGCAGAGGCGGCAGCCUUCGGUGGCGCUAUAGCGCCAACGUUCUCAACUAUGACACGCAAAACGCGUGCUCCGUUGAAUAGAGUUUAUCAUG [C14G G88U G140A]	≤ -4.2
GGAUCUUCUCGAUGUAACAAAAAAGACAAAUCUGCCACAAAGCUUGAGAGCAUCUUCGGAUGCAGAGGCGGCAGCCUUCGGUGGCGCGAUAGCACCAACGUUCUCAACUAUGACACGCAAAACGCGUGCUCCGUUGAAUGGAGUUUAUCAUG [C14G G94A]	-2.61
GGAUCUUCUCGAUGUAACAAAAAAGACAAAUCUGCCACAAAGCUUGAGAGCAUCUUCGGAUGCAGAGGCGGCAGCCUUCGGUGGCGCGAUAGCACCAACGUUCUCCACUAUGACACGCAAAACGCGUGCUCCGUUAAAUGGAGUUUAUCAUG [C14G G94A A106C G136A]	-3.64
GGAUCUUCUCGAUGUAACAAAAAAGACAAAUCUGCCACAAAGCUUGAGAGCAUCUUCGGAUGCAGAGGCGGCAGCCUUCGGUGGCGCGAUAGCGCCAACGUUCUCAACUAUCACACGCAAAACGCGUGCUCCGGUGAAUGGAGUUUAUCAUG [C14G G112C U134G]	≤ -4.2
GGAUCUUCUCGAUGAAACAAAAAAGACACAUCUGCCACAAAGCUUGCGAGCAUUUUCGGAUGCAGAGGCGGCAGCCUUCGGGGGCGCGAUAGCGCUAACGUUCUCAACUAUGAUACGCAAAACGCGUGCUCCGUUGAAUGGAGUGUAUCAUG [C14G U15A A29C A47C C54U U82G C96U C114U U145G]	≤ -4.2
GGAUCUUCUCGAUGAAAUAAAAAAUAGAAAUCUGCCACAAAGCUUGAGAGCAUCUUCGGAUACAGAGGCGGCAGCCUUCGGUGGGGCGAUAGCGCCAACGUUCUCAACUAUGACACGCAAAACGCGUGCUCCGUUGACUGGAGUUUAUCAUG [C14G U15A C18U G25U C27G G62A C85G A138C]	≤ -4.2
GGAUCUUCUCGAUGAAACAAAAAAGACAAAUCUGCCACAAAGCUUGAGAGCAUUUUCGGAUGCAGAGGAGGCAGCCUUCGGUGGCGCGAUAGCGCCAAAGUUCUCAACUAUGACACGCAAAACGCGUGCUCCGUUGAAUGGAGUUUAACAUG [C14G U15A C54U C69A C99A U148A]	≤ -4.2
GGAUCUUCUCGAUGGAACCAACAAGACAAAUCUGCCACAAGGCUUGAGAGCAUCUUCCGAUGCAGAGGCGGCAGCCUUCGGUGGCGCGAUAGUGCCAACGUUCUCAACUAUGACACGCAAAACGCGUGCUCCGUUGAAUGGAGUUUAUCAUG [C14G U15G A19C A22C A41G G58C C93U]	-3.91
GGAUCUUCUCGAUGGAAGAAAAAAGACAAAUCUGCCACAAAGCUUGAGAGCAUCGUCGGAUGCAGAGACGGCAGCCUUCGGUGGCGCGAUAGCGCCAACGUUCUCAACUAUGACACGCAAAACGCGUGCUCCGUUGAAUGGAGUUUAUCAUG [C14G U15G C18G U55G G68A]	≤ -4.2
GGAUCUUCUCGAUGGAACAAAAAAGACAAAUCUGCCACAAAGCUUGAGAGCAUUUUCUGAUGCAGAGGCGGCAGCCUUCGGUGGCGGGAUAGCGCCAACGUUCUUAACUAUGACACGCAAAACGCGUGCUCCGUUGAAUGGAAUUUAUCAUG [C14G U15G C54U G58U C87G C105U G143A]	≤ -4.2
GGAUCUUCUCGAUGUAACAAAAAAGACAAAACUGCCACACAGCUUGAGAGGAUCUUCGGAUGCAGAGGCGGCAGCCUUCGGUUGCGCGAUAGCGCCAACGUUCUCAACUAUGACACGCAAAACGCGUGCUCCGUUGAAUGGAGUUUAUCAUG [C14G U31A A40C C51G G83U]	≤ -4.2
GGAUCUUCUCGAUGUAACAAAAAAGACAAAACUGCCACAAAGCUUGAGAGCAUCUUCGGAUACAGAGGCGGCCGCCUUCGGUGGCGCGACAGUGCCAACGUUCUCAACUAUGACACGCAAAACGCGUGCUCCGUUGAAUGGAGUUUAUCAUG [C14G U31A G62A A73C U90C C93U]	≤ -4.2
GGAUCUUCUCGAUGUAACAAAAAAGACAAAACUGCCACAAAGCUUGAGAGCAUCUUCGGAUGCAGAGGCAGCAGGCUUCGGUGGCGCGAUAGCCCCAACGUUAUCAACUAUGACACGCAAAAUGCGUGCUCCGGUGAAUGGAGUUUAUCAUG [C14G U31A G70A C75G G94C C103A C123U U134G]	≤ -4.2
GGAUCUUCUCGAUGUAACAAAAAAGACAAAACUGCCACAAAGCAUGAGAGCAUCUUCGGAUGCAGAGGCGGCUGCCUUCGGUGGCGCGAUAGCGCUAACGUUCUCAACUAUGACACGCAAAACGCGUGCUCAGUUGAAUGGAGUUUAUCAUG [C14G U31A U44A A73U C96U C132A]	≤ -4.2
GGAUCUUCUCGAUGUAACAAAAAAGACAAAUCAGCCACAAAGCUUGAGAGCAUCUUCGGAUGCAGAGGCGACAGCCUUCGGUGGGGCGAUAGCGCCAACGUUCUCAACUAUGACACGCAAAACGCGUGCUCCGUUGACUUGAGUUUAUCAUG [C14G U33A G71A C85G A138C G140U]	≤ -4.2
GGAUCUUCUCGAUGUAACAAAAAAGACAAAUCCGCCCCAAAGCUUGAGCGCAUCUUCGAAUGCAGAGGCGGCAGCCUUCGGUGGUGCGAUCGCGCCAACGUUCUCAACUAUGACACGCAAAACGCGUGCUCCGUUGAAUGGAGUUUAUCAUG [C14G U33C A37C A49C G59A C85U A91C]	≤ -4.2
GGAUCUUCUCGAUGUAACAAAAAAGACAAAUCCGCCACAAAGCUUGAGAGCAUCUUCGGAUGCAGGGGCGGCAGCCUUCGGUGGCGCGAUAGCACCAACGUUCUCAACUAUGACACGCAAAACGCGUGCUCCGUUGAAUGGAGUUUAUCAUG [C14G U33C A66G G94A]	≤ -4.2
GGAUCUUCUCGAUGUAACAAAAAAGACAAAUCCGCCACAAAGCUUGAGAGCAUCUUCGGAUGCAGAGGCGGCAGCCUUCGGUGUCGCGAUAGCACCAACGUUCUCAACUAUGACACGCAAAACGCGUGCUCCGUUGAAUGGAGUUUAUCAUG [C14G U33C G84U G94A]	-4.16
GGAUCUUCUCGAUGUAACAAAAAAGACAAAUCUGCCACAAAGCAUGAGCGCAUCUUCGGAUGCAGAGGCGGCAGGCUUCGGUGGCGCGAUAGGGCCAACGUUCUCAACUAUGACACGCAAAACGCGUGCUCCGUUGAAUGGAGUUUAUCAUG [C14G U44A A49C C75G C93G]	≤ -4.2
